Source: PubChem BioAssay AID1159614 (National Center for Advancing Translational Sciences (NCATS), 2016)
Screen size: about 45,000 compounds; about 65 (0.1%) were called active. The call rests on the fitted dose curve; in most records, active means well fitted activation curve with a large enough effect; inconclusive means small, poorly fitted or top-dose-only effect; inactive means no such curve, though single readings can be large or run the other way. Some of the results follow.

Each compound was assayed against Galactocerebrosidase (Homo sapiens) (UniProt P54803) (assay: A Novel Cell-Based Assay to Identify Small Molecules for B -Galactocerebrosidase). Details: 145M-Twi-hGALC-G270D cells (Twitcher mouse brain line with human GALC G270D), HMU-beta-Gal fluorescence, 48 h; series mostly up to 57.5 µM; activation: at the top concentration.
UniProt P54803, sequence (P54803 whole entry, looked up): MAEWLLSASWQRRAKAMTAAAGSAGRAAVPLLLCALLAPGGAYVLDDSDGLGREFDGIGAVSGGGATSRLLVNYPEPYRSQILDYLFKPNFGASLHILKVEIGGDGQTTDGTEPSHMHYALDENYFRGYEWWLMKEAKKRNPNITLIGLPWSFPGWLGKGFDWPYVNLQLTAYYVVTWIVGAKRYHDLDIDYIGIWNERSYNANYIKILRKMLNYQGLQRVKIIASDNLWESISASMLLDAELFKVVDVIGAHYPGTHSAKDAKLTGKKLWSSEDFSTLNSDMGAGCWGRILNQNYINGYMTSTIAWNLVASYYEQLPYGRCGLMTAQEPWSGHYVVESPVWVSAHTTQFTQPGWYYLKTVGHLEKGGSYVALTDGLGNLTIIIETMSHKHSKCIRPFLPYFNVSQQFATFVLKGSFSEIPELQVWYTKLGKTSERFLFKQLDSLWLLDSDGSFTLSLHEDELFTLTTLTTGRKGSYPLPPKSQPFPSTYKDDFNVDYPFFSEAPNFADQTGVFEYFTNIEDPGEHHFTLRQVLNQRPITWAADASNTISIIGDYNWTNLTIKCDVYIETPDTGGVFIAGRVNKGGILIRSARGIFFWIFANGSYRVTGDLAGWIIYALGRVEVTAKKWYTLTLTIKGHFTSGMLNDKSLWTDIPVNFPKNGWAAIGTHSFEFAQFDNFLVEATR
How it was run: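 Fluorescence readout: HMU-β-gal cleavage by mutant GALC (0.1 mM final, citrate/phosphate pH 5.2 with 1 mg/mL taurocholate), stopped with carbonate/bicarbonate plus Triton X-100. Cells: murine Twitcher 145M-Twi expressing human G270D GALC; qHTS for activators.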
Further: 0% is about no effect; nearly all actives have a fitted effect of over 65% in size.

| SMILES | activation |
| --- | --- |
| CCOc1ccc(NC(=O)c2cccc3c(=O)c4c([nH]c23)CCCC4)cc1 | inactive: -18% |
| Cc1ccc(Cn2cnc3nc4c(cc3c2=O)CCCC4)cc1 | inactive: -7.09% |
| Cc1cc(C)c(NC(=O)CN(c2ccccc2)S(=O)(=O)N(C)C)c(C)c1 | inactive: -25.5% |
| CCc1ccc(NC(=O)C2(c3cccs3)CCOCC2)cc1 | inactive: 1.43% |
| Cc1oc2ncn(CC(C)C)c(=O)c2c1C(=O)N1CCN(c2ccccc2F)CC1 | inactive: -6.69% |
| Clc1ccc(-c2nnn3c2nc(N2CCCCC2)c2ccccc23)cc1 | inactive: -7.16% |
| CCOc1ccc(NC(=O)c2cnn3c2NC(c2ccccc2)=CC3c2cccc(OC)c2OC)cc1 (centres undefined) | inactive: -15.9% |
| Cc1ccccc1NC(=O)c1cc2ccccc2o1 | inactive: -4.85% |
| CSc1ccc(CCNC(=O)CN2C(=O)COc3ccc(S(=O)(=O)N4CCCC4)cc32)cc1 | inactive: -28.8% |
| O=C(Nc1ccc2oc(-c3ccc4ccccc4c3)nc2c1)c1cccc(Cl)c1Cl | inactive: -20% |
| COc1ccc(-n2c(=O)c3c4c(sc3n(Cc3c(F)cccc3Cl)c2=O)CN(C(C)=O)CC4)cc1OC | inactive: -15.8% |
| O=C(Nc1ccc(F)cc1)c1ncn(-c2ccccc2)n1 | inactive: -20.7% |
| CCOC(=O)c1cnc2c(Cl)c(Cl)ccc2c1Nc1ccc(N(C)C)cc1 | inactive: -6.44% |
| Cc1ccccc1-n1c(=O)c2ccccc2n(Cc2ccc(F)cc2)c1=O | inactive: -5.59% |
| COc1ccc(C2CC(=O)N(Cc3cccc(C)c3)c3c2c(C)nn3-c2nc(C)cc(C)n2)c(OC)c1 (centres undefined) | inactive: -15.4% |
| COC(=O)c1sc2cccc(F)c2c1S(=O)(=O)NCc1ccc(F)cc1 | inactive: -1.7% |
| COc1cccc(-c2nc(SCC(=O)NCc3ccccc3)c3c(=O)n(C)c(=O)n(C)c3n2)c1 | inactive: -14.6% |
| CCCCSCCCNC(=O)c1cn(CC)c2ccc(S(=O)(=O)N(C)C3CCCCC3)cc2c1=O | inactive: -19.2% |
| COc1cccc(N2CCN(S(=O)(=O)c3ccc(-c4cc(C(F)(F)F)on4)s3)CC2)c1 | inactive: -9.09% |
| O=C(Cn1ccc2cc(S(=O)(=O)N3CCCCCC3)ccc21)NCCc1ccccc1Cl | inactive: -9.31% |
| Cc1ccc(CCNC(=O)CCS(=O)(=O)c2ccc3c(c2)oc(=O)n3C)cc1 | inactive: -23.8% |
| O=S(=O)(c1ccccc1)n1nc(-c2ccc(Cl)cc2)nc1NCc1ccc(F)cc1 | inactive: -34.1% |
| COc1cccc(NC(=O)Cn2c(=O)c3cccn3c3ccc(F)cc32)c1 | inactive: -15.9% |
| Cc1ccc(-c2noc(CN(C(=O)c3ccc(C(C)(C)C)cc3)C(C)C)n2)cc1 | inactive: -39.2% |
| CCCc1cc(C(N)=S)ccn1 | inactive: -9.05% |

| SMILES | activation |
| --- | --- |
| CCOC(=O)c1ccccc1NC(=O)CN(c1cc(C(F)(F)F)ccc1Cl)S(C)(=O)=O | inactive: -12.4% |
| CN(CC(=O)NCc1ccc(Cl)cc1)S(=O)(=O)c1ccc2c(c1)c(=O)n(C)c(=O)n2C | inactive: 14.7% |
| Cc1ccc(CCNC(=O)c2ccc(CS(=O)(=O)Cc3ccc(Cl)cc3)o2)cc1 | inactive: 1.46% |
| CCOC(=O)c1scc(-c2ccc(C)cc2)c1S(=O)(=O)Nc1cc(C)ccc1C | inactive: -44.4% |
| COc1cc(Cl)c(C)cc1NC(=O)Cn1cnc2sc(C)c(S(=O)(=O)N3CCCCC3)c2c1=O | inactive: -13.7% |
| Cc1noc(NS(=O)(=O)c2ccc(NC(=O)COc3ccccc3Br)cc2)c1C | inactive: -10.1% |
| CCOc1ccccc1NC(=O)Nc1ccccc1OCc1cc(=O)n2ccccc2n1 | inactive: -6.92% |
| CC(Nc1ncnc2c1cnn2-c1cccc(Cl)c1)c1ccccc1 (centres undefined) | inactive: -21.9% |
| COc1cccc(-c2nnc(SCC(=O)N3CCc4ccccc43)o2)c1 | inactive: -8.26% |
| O=C(NCc1ccc(Cl)cc1)C(=O)NCC(c1cccnc1)N1CCN(c2ccccc2)CC1 (centres undefined) | inactive: -13% |
| CCS(=O)(=O)c1c(S(=O)(=O)CC)c2cc(C(C)(C)C)ccn2c1C(=O)c1ccc(F)cc1 | inactive: -16.8% |
| Cc1cc2c(cc1C)NC(CC(=O)Nc1cccc(C)c1C)C(=O)N2 (centres undefined) | inactive: -6.87% |
| COc1cc(/C=C/C(=O)O[C@H]2CC[C@]34C[C@]35CC[C@]3(C)[C@@H]([C@H](C)CCC=C(C)C)CC[C@@]3(C)[C@@H]5CC[C@H]4C2(C)C)ccc1O | inactive: -13.4% |
| CCOc1ccccc1NC(=O)Cn1c(=O)n(-c2ccc(C)c(C)c2)c(=O)c2c(C)c(C(=O)N(C)C)sc21 | inactive: -7.97% |
| Cc1cccc(COc2ccc(-c3cc(C(F)(F)F)n4nc(C)cc4n3)cc2)c1 | inactive: -1.49% |
| CCc1ccc(-c2nc3cc(NC(=O)c4ccc(F)cc4)ccc3o2)cc1 | inactive: -12.7% |
| Cc1ccc(CNC(=O)CCN2C(=O)C(C)Oc3ccc(C)cc32)cc1 (centres undefined) | inactive: -4.32% |
| Cc1ccc(Nc2c3c(nc4ccccc24)CCC3)cc1F | inactive: -33.5% |
| NNCCc1ccccc1 | inactive: -18.3% |
| COc1ccc(OC)c(S(=O)(=O)NCCc2sc(C)nc2C)c1 | inactive: -16.1% |
| Cc1c(Cl)cccc1NC(=O)CCS(=O)(=O)c1cccc2nsnc12 | inactive: -5.94% |
| CCCCNC(=O)c1ccc(-c2nc(CN3CCc4ccccc43)c(C)o2)cc1 | inactive: 12% |
| Cc1ccc(NC(=O)CCNS(=O)(=O)c2cccs2)cc1F | inactive: -9.57% |
| COc1ccccc1N(CC(=O)NCCSc1ccccc1)S(=O)(=O)c1ccc(C)cc1 | inactive: -16.3% |
